Where “and” joins values, the source holds several entries; their conditions need not be identical. Equal entries are not always repeated.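 48-hour exposure; five concentrations; linearly interpolated endpoints. GI50 marks 50% less growth. At the TGI there is no net growth.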 Numbered stars: 1 amine (or outer) side, 2 acyl side, 3 side chain; on linkers, the order of the positions; unused ones are H or OH. Square brackets hold non-standard residues; d marks the D form. Peptide text beside a SMILES is read from it. * marks the point of attachment. Phe(4-NO2) = N[CH](Cc1ccc([N+](=O)[O-])cc1)C(=O)O; X4 = C[C@H](N[*:1])C(=O)C(C)(C)C(=O)[*:2]; Hmpa(2S,3S) = CC[C@H](C)[C@H](O)C(=O)O; NMeY = CN[C@@H](Cc1ccc(O)cc1)C(=O)O; NMeL = CN[C@@H](CC(C)C)C(=O)O; NMeV = CN[C@H](C(=O)O)C(C)C; Boc = CC(C)(C)OC(=O)*; βAla = NCCC(=O)O

The assay has as its system NCI-H322M lung. In words: growth of human tumour cells (NCI), 48 h.
In turn, `COc1cc(Cc2nccc3cc(OC)c(OC)cc23)c(N=NN(C)C)cc1OC` came in with a TGI of 57.4 µM. Take `O=C(O)C1CC(O)CN1` (stereo not given): the TGI was above 100 µM.

For `COc1ccc(SCc2cc(OCc3ccccc3)c(OCc3ccccc3)c(OCc3ccccc3)c2)cc1`, the TGI turned out to be 3.2 µM.

Take `N#C/C(N)=C(\C#N)NC(=O)C(=O)N/C(C#N)=C(\N)C#N`: the TGI is above 100 µM. The same measure, in the same setting: the value for `CCOC(=O)c1[nH]c(COC(C)=O)c2c1CCCCCCCCCC2` was above 100 µM.

Consider `COc1cc2c(cc1OCCCC(=O)Nc1ccc3ccc4cccc5ccc1c3c45)N=C[C@@H]1CCCN1C2=O`, for which the GI50 was 0.189 µM and the TGI was 0.597 µM. In the case of `C=C1C2C[C@@H]3O[C@H]4C[C@H]5O[C@@]6(C[C@@H]7O[C@]8(C[C@H](C)[C@@H]9O[C@@H]%10CC(CO)O[C@@H]%10C[C@@H]9O8)C[C@H](C)[C@@H]7O6)C[C@H]5O[C@H]4[C@H](C)[C@H]3OC(=O)C[C@H]3CC[C@@H]4OC5[C@H]6O[C@]7(CC[C@H]8CC(=C)[C@H](CC[C@@H](C[C@H]1C)O2)O8)CC6O[C@@H]5[C@@H](O7)[C@H]4O3` (stereo not given in full), the TGI is below 0.0001 µM.

`CC1(C)CCC[C@]2(C)[C@H]3[C@H](C#N)c4cc(O)c(O)cc4O[C@@]3(C)CC[C@@H]12` had a TGI above 10 µM.

For `O=C(Nc1ccc([N+](=O)[O-])cc1Cl)c1cccc([N+](=O)[O-])c1O`, the TGI stood at 8.87 µM. The same measure, in the same setting: the value for `C=C(C)[C@@H]1CCC2=C[C@H](OC2=O)[C@@]2(C)C[C@@H]2C2=CC(C)=C(O2)[C@H]1O` was above 75 µM. Consider `O=C1CCc2c(sc3[nH]c(=S)n(Cc4ccc(Cl)cc4)c(=O)c23)C1`, for which the GI50 was 2.64 µM and the TGI is above 100 µM. As for `OC(c1cc(C23CC4CC(CC(C4)C2)C3)nc2c(Cl)cc(Cl)cc12)C1CCCCN1` (stereo not given), the TGI stood at 3.1 µM. Same read-out and setting: the same measure for `O=C1C(c2c(O)[nH]c3ccc(Br)cc23)=Nc2ccccc21`: 31.2 µM; for `NC(N)=Nc1ccc(CC(N)C(=O)O)cc1` (stereo not given): above 12.5 µM; for `CC[C@H](C)[C@@H]1OC(=O)CCNC(=O)[C@@H](C)NC(=O)C(C)(C)C(=O)[C@H](C)NC(=O)[C@H](Cc2ccc(OC)cc2)N(C)C(=O)[C@H](C(C)C)N(C)C(=O)CNC(=O)[C@H](CC(C)C)N(C)C(=O)CNC1=O` (cyclo(G[NMeL]G[NMeV][NMeY](Me)[X4][dA][βAla][Hmpa(2S,3S)])): above 50 µM.

`C=CC(Cl)(CBr)CCC(Br)C(C)(C)Cl` (stereo not given) had a TGI of 44.8 µM. Still for that read-out and setting: the value for `Nc1onc2c1Cc1c(noc1N)-c1ccccc1-2` was above 100 µM; that for `CC(C)(C)OC(=O)N1C(c2cccnc2)=CC[C@H]2C3CC=C(c4cccnc4)[C@@]3(C)CC[C@@H]21` (stereo not given in full) was 29.5 µM. On to `Cc1cnc(C(=O)NNc2nc3sc4c(c3c(=O)n2C)C(C)CCC4)cn1` (stereo not given), for which the GI50 is 0.29 µM and the TGI came out at 10.1 µM. In the case of `C=C1CCC([N+](=O)[O-])[C@](C)(N=O)CC[C@@H]2C1CC2(C)C` (stereo not given in full), the TGI is above 100 µM. Same read-out and setting: the same measure for `COC(=O)c1ccccc1C1CN=NC12Cc1cc(C)ccc1C2=O` (stereo not given): above 100 µM. Turning to `COC(=O)[C@@H](C)C[C@H](Cc1ccccc1)NC(=O)c1csc([C@@H](C[C@H](C(C)C)N(C)C(=O)[C@@H](NC(=O)[C@H]2CCCCN2C)C2CC2)OC(C)=O)n1`, the GI50 was 0.00178 µM and 0.00165 µM; the TGI was above 16.5 µM.

`Cc1ccc(S(=O)(=O)N2CCCSCC2)cc1` registered a TGI above 100 µM.

`Nc1nc2c3nc(Nc4ccccc4)sc3nc(=O)n2c2sc(Nc3ccccc3)nc12`: the TGI is above 100 µM. `O=C1CSC(c2cccc([N+](=O)[O-])c2)N1c1ccc(-n2c(-c3ccccc3)nc3ccccc3c2=O)cc1` (stereo not given) displayed a TGI above 100 µM. `COc1cc(/C=C/C(=O)C2(C(=O)/C=C/c3cc(OC)c(OC)c(OC)c3)CCCCC2)cc(OC)c1OC` yielded a TGI above 100 µM. For the molecule `CC12CCC(Br)C(C)(C)C1CC=C1C(=O)OCC1O2` (stereo not given), the TGI was determined as 38.5 µM. On the same count and under the same terms, the value for `C=CCC1C(=O)CC2(C)CC(=O)C(CC=C)C12C` (stereo not given) was above 100 µM; that for `CN(C)c1ccc(/C=c2\sc3nc4ccccc4n3c2=O)cc1` was above 100 µM. Take `N#C/C(=C\c1ccc(Br)cc1)n1nnc2ccc(F)cc21`: the GI50 was 1.56 µM and the TGI is 3.09 µM. For `COc1ccc(-c2ccc(-c3ccc(C(=N)N)o3)o2)cc1` the same measures were 2.26 µM and 7.15 µM.

`COCN1C(=O)[C@@H]2CCCN2C(=O)c2cc(N)ccc21` displayed a TGI above 100 µM. Same read-out and setting: the same measure for `CC(=O)OCc1cc2ccccc2nc1C(Br)(Br)Br`: 27.3 µM; for `CC(=O)O[C@H]1C(=O)[C@@]2(C)C(C(OC(=O)c3ccccc3)C3[C@@H](O)C(OC(=O)[C@@H](O)[C@H](NC(=O)c4ccccc4)c4ccc(C(F)(F)F)cc4)C(C)=C1C3(C)C)[C@]1(OC(C)=O)CO[C@@H]1C[C@@H]2O` (stereo not given in full): above 25 µM. The same measure, in the same setting: the same measure for `COc1ccc(C2ON(c3cccc(C)n3)CC=C2C)cc1` (stereo not given): above 100 µM; for `Oc1ccc(-c2nc3ccc(Cl)cc3s2)cc1`: 35 µM. Regarding `CC(=O)c1cc2ccccc2oc1=O`, the TGI was above 100 µM.

Take `Cc1cccc(C)c1NC(=O)C(=O)Nn1c(NN)nc2ccccc2c1=O`: the TGI was above 100 µM.

With `COC(=O)C1OC(O[C@H]2CC[C@]3(C)[C@H]4CC=C5[C@@H]6CC(C)(C)CC[C@]6(C(=O)OC6OCC(O)C(O)C6OC6OC(C)C(OC7OCC(O)C(O)C7O)C(O)C6O)CC[C@@]5(C)[C@]4(C)CC[C@H]3C2(C)C)C(O)C(O)C1O` (stereo not given in full), the TGI is 30.3 µM and 30.9 µM. On the same count and under the same terms, the value for `CCCC(=O)OC1C(CO)OC(n2cc(F)c(=O)[nH]c2=O)C1F` (stereo not given) was above 100 µM; that for `Cc1ccnc(NC(NC(=O)c2ccccc2)(C(F)(F)F)C(F)(F)F)c1` was above 100 µM.

Take `N#Cc1ccc(-n2c3ccccc3c3ccc4c(c32)C(=O)C=CC4=O)cc1`: the TGI stood at 28.3 µM.

In the case of `C(=C\c1ccco1)/c1cccc(/C=C/c2ccco2)n1`, the TGI is above 50 µM. On the same count and under the same terms, the same measure for `O=C1c2ccc(O)c(O)c2C(=O)c2c(O)ccc(O)c21`: 67.7 µM; for `O=C(NCCCCCCNC(=O)c1cc(-c2ccccc2)nc2ccccc12)c1cc(-c2ccccc2)nc2ccccc12`: above 100 µM; for `Cc1cc(S(=O)(=O)Nc2nc3ccccc3c(=O)n2N)c(S)cc1Cl`: above 100 µM.

Molecule `O=C1c2ccccc2C(=O)N1CC(O)COc1cccc2ccccc12` (stereo not given) came in with a TGI above 100 µM. Same read-out and setting: the value for `COc1ccc(/C=C2\CCC(C)C3=C2N=c2s/c(=C/c4cccc(Br)c4)c(=O)n2C3c2ccc(OC)c(OC)c2)cc1OC` (stereo not given) was above 100 µM. Same read-out and setting: the same measure for `CO/N=C(\C)c1cccc(Nc2c3ccccc3nc3occc23)c1`: 55.7 µM; for `CCOC(=O)c1ccc(NCC#CCN2CCCCC2)cc1`: above 100 µM. Still for that read-out and setting: the same measure for `NC(N)=NS(=O)(=O)c1ccc(Nc2c3ccccc3nc3c(C(=O)Nc4ccc(S(N)(=O)=O)cc4)cccc23)cc1`: above 100 µM. In turn, `CC(C)(C)c1cc(O)ccc1O` gave a TGI above 100 µM.

Take `O=C(/C=C/c1ccc(C(F)(F)F)cc1)c1ccc(Nc2nc(NCCO)nc(Nc3ccc(Cl)cc3)n2)cc1`: the GI50 is 14.9 µM and the TGI is 53.6 µM. As for `Cc1ccc(S(=O)(=O)NNCNC(=O)c2ccccc2)cc1`, the TGI is above 100 µM.

For the molecule `O=c1/c(=C/c2ccc(-c3ccc(Cl)cc3Cl)o2)sc2n1[C@@H](c1ccc(Cl)cc1)C=C(c1cc(F)c(Cl)cc1Cl)N=2`, the TGI is above 100 µM. Still for that read-out and setting: the value for `C/C(=N\NC(=S)NCCCNC(=S)N/N=C(\C)c1ccccn1)c1ccccn1` was 22.1 µM. Turning to `C=C1C(=O)O[C@H]2[C@H]1CC/C(Cn1cc(-c3ccccc3C(F)(F)F)nn1)=C\CC[C@@]1(C)O[C@@H]21`, the GI50 was 10.8 µM and the TGI was determined as 23.2 µM. As for `CCN(CC)C(=O)C(C)n1cc(C)c(=O)[nH]c1=O` (stereo not given), the TGI was above 100 µM. Still for that read-out and setting: the same measure for `O=C1C(=Cc2c(O)cc(O)cc2O)C(=O)c2ccccc21`: above 75.4 µM.

Consider `COc1cc(Nc2ncc(F)c(Nc3ccc4c(n3)N(COP(=O)(O)O)C(=O)C(C)(C)O4)n2)cc(OC)c1OC`, for which the GI50 is 2 µM and 2.22 µM; the TGI was 9.32 µM and > 10 µM. `O=c1c(O)c(-c2cc(O)c(O)c(O)c2)oc2cc(O)cc(O)c12` yielded a TGI of 74.1 µM. Still for that read-out and setting: the value for `CCN1CCC(O)(c2ccc(Cl)cc2)C(C(=O)c2ccc(Cl)cc2)C1` (stereo not given) was above 100 µM; that for `O=c1c2cc(Cl)ccc2sc2cccc(Cl)c12` was above 100 µM.

Turning to `Cc1cc(=O)oc2c(CNC(Cc3ccccc3)C(=O)O)c(O)ccc12` (stereo not given), the TGI was above 100 µM. The same measure, in the same setting: the same measure for `CN(C)CCNC(=O)c1ccc(NC(=O)c2nc([N+](=O)[O-])cn2C)cc1`: above 100 µM; for `Oc1ccc2c(c1)-c1c(c3ccccc3n1CCN1CCOCC1)CC2`: 56.7 µM. Same read-out and setting: the same measure for `O=C1C(Cl)=C(Nc2ccc(S(=O)(=O)Nc3ccccn3)cc2)C(=O)c2ccccc21`: above 49.9 µM; for `CC(=O)O[C@H]1[C@H](OC(=O)CC(C)(O)CC(=O)O)C[C@]2(C)C3=C(CCC2C1(C)C)[C@]1(C)CC[C@H]([C@H]2CC[C@H](C(C)(C)O)OC2O)[C@@]1(C)[C@@H](O)C3` (stereo not given in full): 35.6 µM.

With `CCN(CC)c1ccc(C(=O)c2ccc(N(CC)CC)cc2)cc1`, the GI50 is 1.17 µM and the TGI is above 100 µM. For `COc1cccc(/C=N/C(/N=C/c2cccc(OC)c2O)c2cccc(OC)c2O)c1O`, the TGI is 6.11 µM. Turning to `Cc1ccc(O)c(NC(=O)c2ccc(CNc3ccnc(C(F)(F)F)c3)cc2)c1`, the GI50 was 8.27 µM and the TGI stood at 58.2 µM. For `COc1cc(C2CC(c3ccc(Nc4ccnc5cc(Cl)ccc45)cc3)=NN2c2ccc(Cl)cc2)cc(OC)c1OC` (stereo not given) the same measures were 13.2 µM and above 100 µM. Turning to `COC(=O)C1(C)C=CC(=O)C2(C)C1C(O)C1OC3CC(c4ccoc4)C(C)=C3C1(C)C2CC(=O)O` (stereo not given), the TGI is above 100 µM. `N[C@H]1CCCC[C@@H]1N1C(=O)c2ccccc2C1(O)c1ccc(Cl)cc1` (stereo not given in full) returned a TGI of 27 µM.

In the case of `COc1cc(C(O)(CC#N)c2cc3c(cc2Br)OCO3)cc(OC)c1OC` (stereo not given), the TGI is above 100 µM. On the same count and under the same terms, the same measure for `CNC(=O)CCC(NC(=O)OC(C)(C)C)C(=O)NC(Cc1ccc([N+](=O)[O-])cc1)C(=O)NCC(=O)NC` (stereo not given) (Boc-Glu(NHMe)-[Phe(4-NO2)]-Gly-NHMe; configuration not given here): above 100 µM; for `CC(=O)OCC1OC(n2c(-c3ccc(C)cc3)cc(-c3ccccc3)c(C#N)c2=S)C(OC(C)=O)C(OC(C)=O)C1OC(C)=O` (stereo not given): above 100 µM. On to `COI1NC(=O)c2ccccc21`, for which the TGI was above 100 µM.

Source of the values: PubChem BioAssay (NCI).
